The whole screen tested about 48,000 compounds, of which about 450 (0.94%) were called active. About 19% were inconclusive and are not listed. Calls come from the whole dose curve; as a rule, active = well fitted inhibition curve with a large enough effect; inconclusive = small, poorly fitted or top-dose-only effect; inactive = no such curve, though single readings can be large or run the other way. Some of the results follow.
test: Primary qHTS for Identification of Small Molecule Inhibitors of Huntingtin Promoter Activity; settings: HEK293 HTT promoter firefly luciferase reporter (activity 0% = vehicle and -100% = no light), 24 h; series mostly up to 57.5 µM; activity change, negative = inhibition: at the top concentration; note: nearly all actives have a fitted effect of over 50% in size
Summary of the method: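 HEK293 luciferase promoter-reporter cells (2,500/well) plated 24 h, then compounds added at up to 57.5 uM final for 24 h at 37 °C. Firefly luminescence by Dual-Glo, normalized to vehicle (0%) and zero RLU (-100%).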
Potency is the fitted concentration of half-maximal effect.

Row | Compound | activity change, negative = inhibition | Potency
1 | CN(C)c1ccc(CNC(=O)c2ccc(Cn3c(SCc4ccccc4)nc4cccnc43)cc2)cc1 | inactive: -16.2% | 
2 | Cc1ccc(Cl)cc1NC(=O)C1CCN(c2nnc(C)c3c(C)n(-c4ccccc4)nc23)CC1 | inactive: 0.363% | 
3 | CCc1ccc(CNC(=O)c2cnc3sc(N4CCCC4)nn3c2=O)cc1 | inactive: 9.14% | 
4 | Cc1cc(C)c(Cn2c3ccccc3c3cnn(CC(=O)NCc4cccs4)c(=O)c32)c(C)c1 | inactive: -21.4% | 
5 | CCc1ccc(-n2c(=O)c3c4c(sc3n(CC(=O)c3ccc(F)cc3)c2=O)CCC4)cc1 | inactive: -7.49% | 
6 | COc1ccc(-c2ccc3c(N)c(C(=O)c4ccc(OC)c(OC)c4)sc3n2)cc1 | inactive: 6.71% | 
7 | CCC(C)NC(=O)CCCN1C(=O)CCn2nc(-c3cccn3C)cc21 (stereo unspecified) | inactive: 3.11% | 
8 | CCc1cccc(NC(=O)COC(=O)c2cn(CC)c3nc(C)ccc3c2=O)c1 | inactive: -5.91% | 
9 | COc1ccc(CNC(=O)c2ccc(-c3nc(CSc4ccccc4)c(C)o3)cc2)cc1OC | inactive: -23.1% | 
10 | CCCc1cc(=O)[nH]c(SCC(=O)N2CCN(c3ccccc3)CC2)n1 | inactive: -17.7% | 
11 | COc1ccc(CNC(=O)CSCc2nc(-c3ccccc3C)oc2C)cc1 | inactive: -12.1% | 
12 | COc1ccccc1C(=O)Nc1ccccc1OCc1cc(=O)n2c(C)csc2n1 | inactive: -1.63% | 
13 | CC(C)c1nn2c(=O)cc(COC(=O)c3ccc(NC(=O)COc4ccccc4)cc3)nc2s1 | inactive: -11.5% | 
14 | COc1ccc(NC(=O)CN2C(=O)CCn3nc(-c4cccn4C)cc32)cc1Cl | inactive: -21% | 
15 | O=S(=O)(c1ccc(-c2cc(C(F)(F)F)on2)s1)N1CCN(c2ccccc2F)CC1 | inactive: 3.58% | 
16 | COC(=O)c1ccccc1NC(=O)c1cc(-c2ccccc2O)no1 | inactive: -27.2% | 
17 | CC(=O)Nc1nonc1-c1nnc(SCC(=O)Nc2ccc(C)cc2)n1-c1ccccc1 | inactive: -17.3% | 
18 | CCOC(=O)c1sc2cccc(F)c2c1S(=O)(=O)NCc1ccccc1Cl | inactive: -28.6% | 
19 | O=C(CS(=O)(=O)c1cccc2nsnc12)N1CCN(c2cccc(Cl)c2)CC1 | inactive: -15.7% | 
20 | COc1ccc(-c2cc(-c3ccccc3)c(C#N)c(SCC(O)CS(=O)(=O)Cc3ccc(Cl)cc3)n2)cc1 (stereo unspecified) | inactive: -28.4% | 
21 | CCCN1CCN(c2ncnc3sc(C(=O)Nc4ccc(C(C)C)cc4)c(C)c23)CC1 | inactive: -26.2% | 

Row | Compound | activity change, negative = inhibition | Potency
22 | COc1cccc(N2CCN(C(=O)c3ccc(C)c(NC(=O)c4nsc5ccccc45)c3)CC2)c1 | inactive: 5.58% | 
23 | COc1cc(SC)ccc1C(=O)Nc1ccc(S(=O)(=O)Nc2nccc(C)n2)cc1 | inactive: -0.598% | 
24 | Cc1ccc(C(c2sc3nc(-c4ccco4)nn3c2O)N2CCCC2)cc1 (stereo unspecified) | inactive: 8.63% | 
25 | Cc1cccc(NC(=O)Cn2nnc(-c3nc(-c4ccncc4)no3)c2N)c1 | inactive: 11.1% | 
26 | COc1ccc(CN2CCc3c(c(=O)n4ncc(C(=O)N5CCN(c6ccccc6OC)CC5)c4n3C)C2)cc1 |  | active: 1.78 µM
27 | Cc1ccc(NC(=O)CN2C(=O)c3ccccc3Sc3ccc(C(=O)N4CCOCC4)cc32)cc1F | inactive: -33.6% | 
28 | CC(C)OC(=O)C(C)(C)Oc1ccc(C(=O)c2ccc(Cl)cc2)cc1 | inactive | 
29 | CCc1cccc(NC(=O)Cn2c(C(=O)OC)cc3sc(Cl)cc32)c1 | inactive: -22.8% | 
30 | CCN(CC)CCNC(=O)C1CCN(C(=O)c2cnn(-c3ccccc3)c2-n2cccc2)CC1 | inactive: -9.82% | 
31 | Cc1ccc(NC(=O)CSc2nc(=O)cc(N)n2-c2ccccc2)cc1 | inactive: -5.56% | 
32 | Cc1ccc2nc(NC(=O)CSc3[nH]c(=O)ncc3C)sc2c1 | inactive: 44% | 
33 | CC(=O)NCCNC(=O)CCCn1c(=O)[nH]c2ccsc2c1=O | inactive: 3.3% | 
34 | CNC[C@@H](O)[C@@H](O)[C@H](O)[C@H](O)CO | inactive: 6.3% | 
35 | Cc1ccc(-n2c(/C=C/c3c(C)n(C)c4ccccc34)nc3ccccc3c2=O)cc1 | inactive: -2.25% | 
36 | Cc1ccc(C)c(NS(=O)(=O)c2cc3c(cc2C)n(C)c(=O)c(=O)n3C)c1 | inactive: -7.76% | 
37 | CCOC(=O)c1c(NC(=O)Cc2coc3cc(C)cc(C)c23)sc2c1CCC2 | inactive: -5.59% | 
38 | CC(=O)c1ccc(NC(=O)c2cc(C)nn2-c2ccccc2)cc1 | inactive: 4.03% | 
39 | COCCN(CCOC)S(=O)(=O)c1ccc(C(=O)Nc2sc3c(c2C(=O)OC)CCN(C)C3)cc1 | inactive: -11.2% | 
40 | CCOc1cccc(C(=O)Nc2ccc(-c3nc4ncccc4o3)cc2C)c1 | inactive: -0.878% | 
41 | CN(C)S(=O)(=O)N(CC(=O)NCCSCc1c(F)cccc1Cl)c1ccccc1 | inactive: -25.4% | 
42 | CCOC(=O)c1ccccc1NC(=O)c1sc2nc3n(c(=O)c2c1C)CCCCC3 | inactive: -11% | 

Row | Compound | activity change, negative = inhibition | Potency
43 | COC(=O)c1c(NC(C)=O)c2c3c(sc2n1Cc1cc(C)ccc1C)CCCC3 | inactive: 10.8% | 
44 | Cc1cccc(-n2c(C)cc(C(=O)C(=O)Nc3ccccc3F)c2C)c1C |  | active: 8.91 µM
45 | CCCN1CCN(CCCNC(=O)c2cc3c(=O)n(CC)c4ccccc4c3s2)CC1 | inactive: 12.4% | 
46 | O=c1[nH]c(SCc2c(F)cccc2Cl)nc2c1CCC2 | inactive: -15.6% | 
47 | COc1ccc(C(=O)c2oc3ccccc3c2NC(=O)c2cc(=O)c3ccc(C)cc3o2)cc1Cl | inactive: 6.33% | 
48 | Cc1cccc(C(=O)Nc2nnc(S(=O)(=O)N(C)Cc3ccccc3)s2)c1 | inactive: -10.3% | 
49 | CCOc1ccc(-c2cccc(NS(=O)(=O)c3ccc(F)cc3F)c2)nn1 | inactive: -14.1% | 
50 | COc1ccc(-c2noc(CNC(=O)c3ccccc3Br)n2)cc1 | inactive: -22.7% | 
51 | CCOc1ccc2ncc3c(-c4ccc(C)cc4)nn(-c4cccc(F)c4)c3c2c1 | inactive: -10% | 
52 | CCOc1ccc(OCC)c(NC(=O)c2cc(S(=O)(=O)N3CCc4ccccc43)cn2C)c1 | inactive: -14.6% | 
53 | COc1ccc(-c2nc3c(c(SCC(=O)N4CCCCC4)n2)Cc2cc(C)ccc2O3)cc1 | inactive: 4.08% | 
54 | Cc1ccc(S(=O)(=O)NCC(c2ccco2)N2CCOCC2)cc1 (stereo unspecified) | inactive: -13% | 
55 | CC(=O)Nc1ccc(/C=C/c2noc(-c3ccccc3O)n2)cc1 | inactive: 6.39% | 
56 | CCOC(=O)CSc1nc(-c2ccc(OCC)cc2)cc(C(F)(F)F)c1C#N | inactive: -6.09% | 
57 | CC(=O)c1ccc(N2CCN(S(=O)(=O)c3cc4[nH]c(=O)c(=O)[nH]c4cc3C)CC2)cc1 | inactive: 7.85% | 
58 | CCc1nnc(NC(=O)c2cc(=O)c3cc(C)ccc3o2)s1 | inactive: 4.42% [at 11.5 µM] | 
59 | COc1ccccc1CNC(=O)C(=O)NCC(c1cccs1)S(=O)(=O)c1ccccc1 (stereo unspecified) | inactive: -34.4% | 
60 | Cc1ccc(C)c(N2CCN(C(=O)Cn3cnc4onc(-c5ccc(F)cc5)c4c3=O)CC2)c1 | inactive: -7.73% | 
61 | Cc1ccc2oc(=O)c3cc(C(=O)NCCCOC(C)C)sc3c2c1 | inactive: 5.05% | 
